Results as given in PMC4336329 (PLoS ONE, 2015).
About 2,200 (0.71%) of roughly 310,000 compounds showed an effect of 50% or more. The effect is printed as a negative number. The list shows a part of the results.

biological target: human ether-à-go-go-related gene (hERG) potassium channel (human, UniProt Q12809); test: primary screen, population patch clamp on CHO cells stably expressing hERG
Sequence (Q12809 whole entry, looked up): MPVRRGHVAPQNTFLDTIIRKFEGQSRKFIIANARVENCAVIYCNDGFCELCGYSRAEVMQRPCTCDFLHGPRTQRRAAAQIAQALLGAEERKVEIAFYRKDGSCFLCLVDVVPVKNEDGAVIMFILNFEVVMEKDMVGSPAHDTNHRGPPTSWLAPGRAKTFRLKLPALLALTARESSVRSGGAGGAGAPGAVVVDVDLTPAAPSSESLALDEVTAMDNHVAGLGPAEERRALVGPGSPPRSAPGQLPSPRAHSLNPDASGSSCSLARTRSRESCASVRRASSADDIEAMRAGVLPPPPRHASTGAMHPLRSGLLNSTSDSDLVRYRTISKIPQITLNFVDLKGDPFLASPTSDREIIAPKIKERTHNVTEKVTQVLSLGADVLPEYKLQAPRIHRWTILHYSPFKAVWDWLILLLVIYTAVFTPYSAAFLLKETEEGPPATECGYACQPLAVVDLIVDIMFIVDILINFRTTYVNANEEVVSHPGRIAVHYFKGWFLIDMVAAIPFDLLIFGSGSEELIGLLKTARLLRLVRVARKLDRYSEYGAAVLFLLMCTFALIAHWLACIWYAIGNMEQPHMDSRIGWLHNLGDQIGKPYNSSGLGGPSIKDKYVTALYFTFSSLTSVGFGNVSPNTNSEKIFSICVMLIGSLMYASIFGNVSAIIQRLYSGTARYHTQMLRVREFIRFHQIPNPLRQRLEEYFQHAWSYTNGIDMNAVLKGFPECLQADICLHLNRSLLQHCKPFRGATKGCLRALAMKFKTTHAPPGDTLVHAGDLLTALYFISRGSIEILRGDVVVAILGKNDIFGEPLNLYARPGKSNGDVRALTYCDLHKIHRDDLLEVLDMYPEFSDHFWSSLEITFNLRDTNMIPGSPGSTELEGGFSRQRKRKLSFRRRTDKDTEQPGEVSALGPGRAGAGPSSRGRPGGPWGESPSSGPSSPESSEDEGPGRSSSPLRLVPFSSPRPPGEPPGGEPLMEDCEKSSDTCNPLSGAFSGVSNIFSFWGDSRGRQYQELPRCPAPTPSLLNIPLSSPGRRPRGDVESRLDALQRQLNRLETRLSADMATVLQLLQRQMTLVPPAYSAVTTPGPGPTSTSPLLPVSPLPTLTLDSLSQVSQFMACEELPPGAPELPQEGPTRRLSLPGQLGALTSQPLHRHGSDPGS

Row | SMILES | hERG current change (%, negative = inhibition) at 1uM [%]
1 | CC(=O)c1c(C)[nH]c(C(=O)COC(=O)c2cccnc2Cl)c1C | -2.91
2 | Nc1ccc(C(=O)N/N=C2\CCCc3c2[nH]c2ccccc32)cc1 | 13
3 | CN(CCC#N)Cc1cc(=O)oc2ccc3ccccc3c12 | 4.99
4 | CC(C)(C)n1nnnc1C(c1ccc(F)cc1)N1CCC(C(N)=O)CC1.Cl (stereo not drawn) | 8.48
5 | Cc1c(C(=O)CN2CCOCC2)[nH]c2ccccc12 | 5.75
6 | COc1ccc(CN(C(=O)c2nsc(Cl)c2Cl)C(C(=O)NC2CCCC2)c2ccc(C)cc2)cc1 (stereo not drawn) | 10.9
7 | Nc1c(C(=O)Nc2ccc(Br)cc2)sc2nc(-c3ccco3)ccc12 | 9.85
8 | CS(=O)(=O)c1ccc(Cl)c(NC(=O)Nc2ccccc2)c1 | 9.36
9 | COc1ccc(Cc2nnc(Nc3ccc(C)cc3C)[nH]c2=O)cc1 | 15.2
10 | Brc1ccc(OCc2ccccc2)c(CNCc2ccncc2)c1.Cl | -3.74
11 | O=c1[nH]c(=O)n(-c2ccc(Br)cc2)c(O)c1C=NCCN1CCCCC1 | 9.54
12 | CCN(CC)CCOc1ccc(Br)cc1 | -16
13 | O=C(CSc1ncn[nH]1)Nc1ccccc1Sc1ccccc1 | -4.1
14 | c1ccc(NCc2nc3ccccc3n2CCOc2ccccc2)cc1 | 12.7
15 | Cc1ccc(NC2c3ncccc3C(=O)N2C2CCCCC2)cc1C (stereo not drawn) | -5.97
16 | COc1cccc(CC(=O)OC(C)C(=O)Nc2ccc(Cl)cn2)c1 (stereo not drawn) | 10.8
17 | O=C(CCCNC(=O)c1ccc(Cl)cc1)Nc1ccc(S(=O)(=O)Nc2ncccn2)cc1 | 4.85
18 | O=C(N/N=C/c1ccc(Cl)cc1)c1nc2ccc([N+](=O)[O-])cc2c(=O)[nH]1 | 4.25
19 | Cc1cc(C)c2c(C(C)(C)C)nn(-c3ccccc3)c2n1 | 8.49
20 | CC(C)Oc1ccc(CC(=O)NNC(=S)Nc2ccccc2)cc1 | 0.114
21 | CCc1noc(C)c1C(=O)Nc1nc(-c2ccc(OC)c(OC)c2)cs1 | 5.32
22 | Cc1sc2ncnc(OCC(=O)NC3CCS(=O)(=O)C3)c2c1C (stereo not drawn) | 17.4

Row | SMILES | hERG current change (%, negative = inhibition) at 1uM [%]
23 | Cc1ccc(N(CC(=O)NN=C2CCN(C)CC2)S(=O)(=O)c2ccccc2)c(C)c1 | 4.31
24 | CCCn1c(=S)[nH]c2cc(OC)c(OC)cc2c1=O | -4.22
25 | CCOC(=O)c1ccccc1NC(=O)c1ccc(Cl)c(S(=O)(=O)N2CCOCC2)c1 | 1.44
26 | Cn1c(CNC(=O)CCNC(=O)c2cccc(F)c2)cc(=O)n(C)c1=O | 12.3
27 | CC(=O)Oc1ccc(/C=C2/SC(=S)N(Cc3ccccc3)C2=O)cc1 | 9.24
28 | COc1ccccc1NC(=O)CN(Cc1ccccc1)S(C)(=O)=O | 10
29 | O=C(COC(=O)CCN=C1NS(=O)(=O)c2ccccc21)NNC(=O)c1ccc(Cl)cc1 | 3.49
30 | COc1ccc2[nH]cc(C(=O)C(=O)N3CCCCC3)c2c1 | 0.615
31 | CCC1=C(OC(=O)N(CC)CC)N2C(=O)OC(=NCC(=O)OC)[C@]2(Cc2ccccc2)[C@H]2C1=CC[C@H]1C(=O)N(CC(=O)OC)C(=O)[C@H]12 | -0.264
32 | Cc1cccc(NS(=O)(=O)c2nnc(NC(=O)c3ccccc3F)s2)c1 | 10.7
33 | COc1cc2ccccc2cc1C(=O)Nc1cc(C)ccn1 | 11.6
34 | COc1ccc(C(C)NC(=O)C2C(=O)NC3(C)CC2c2ccccc2O3)cc1 (stereo not drawn) | 1.22
35 | CCN1CCN(CCNC(=O)c2ccc(/C=C3\Sc4ccccc4N(Cc4ccccc4F)C3=O)cc2)CC1 | -11.8
36 | CC(C)(C)NC(=O)Nc1ccccc1C(N)=O | 8.5
37 | COC(=O)CN1C(=O)C2(C(C#N)=C(N)Oc3cc(C)oc(=O)c32)c2ccccc21 (stereo not drawn) | 17.2
38 | C=CCn1c(SCC(=O)NCc2ccc3c(c2)OCO3)nc2scc(-c3ccc(F)cc3)c2c1=O | 5.09
39 | CCOC(=O)C(CCCOc1ccc(C(C)CC)cc1)C(=O)OCC (stereo not drawn) | 11.6
40 | CC(C)C(CCNCc1ccccn1)c1ccc(Cl)cc1 (stereo not drawn) | -20.9
41 | N#Cc1cnn(-c2cccc(Cl)c2)c1-n1cccc1 | 13.7
42 | CC(C)c1ccc(S(=O)(=O)N2CCN(C(=O)CN3C(=O)NC4(CCCC4)C3=O)CC2)cc1 | 0.709
43 | Cc1cc(=O)n2[nH]cc(-c3ccccc3)c2n1 | 8.64
44 | O=C(Nc1cccc(OCC(=O)N2CCOCC2)c1)C1CCCCC1 | -1.54

Row | SMILES | hERG current change (%, negative = inhibition) at 1uM [%]
45 | CCOc1cc(C#N)c(NC(=O)c2ccco2)cc1OCC | -0.599
46 | CC(NC(=O)CCc1ccccc1)c1cc2c(cc1Cl)OCCO2 (stereo not drawn) | 6.78
47 | O=C1CCCN1CCC1CCN(C(=O)Nc2ccccc2)CC1 | 2.38
48 | CCOC(=O)c1cc(C(=O)Nc2ccccc2F)nn1C | 1.77
49 | Cc1oc(-c2cccc(Cl)c2)nc1CS(=O)(=O)CC(=O)NCCN1CCOCC1 | 9.67
50 | c1ccc(CCN2CN=C(Nc3nc4ccccc4o3)NC2)cc1 | 6.18
51 | N#C/C(=C\c1ccc(N2CCCCC2)o1)C(N)=O | 15.8
52 | CC(C)CC(=O)Nc1ccccc1N1CCN(c2ccccc2)CC1 | 7.9
53 | Cc1cc(CNC(=O)Cn2cc([N+](=O)[O-])cn2)c2ccccc2n1 | 11.8
54 | Cc1ccc(C(=O)N2CCN(C(=O)c3ccco3)CC2)cc1NC(=O)c1ccco1 | -0.605
55 | COc1ccc(OC)c(N2C(=O)CCCC2=O)c1 | 13.8
56 | CCCC(=O)n1nc(-c2ccco2)nc1N | 13.2
57 | CCCOc1ccc(-c2nc(C#N)c(N3CCN(C)CC3)o2)cc1 | -3.25
58 | Cc1noc(C)c1COc1ccc(C(=O)Nc2ncccc2O)cc1 | 8.99
59 | Cc1ccc2nc(N(CCCN(C)C)C(=O)CS(=O)(=O)c3ccccc3)sc2c1.Cl | 11.5
60 | CCOC(=O)c1sc(N)c(C#N)c1CSc1nnc(C2CC2)n1N | 4.88
61 | COC(=O)CCC(=O)Nc1ccc(NC(C)=O)cc1 | 19.2
62 | COC(=O)c1sc2cc(C(F)(F)F)cnc2c1-c1ccccn1 | 10.4
63 | COc1ccc(NC(=O)c2ccc3nc(-c4ccccc4)c(-c4ccccc4)nc3c2)c(OC)c1 | 7.47
64 | Cc1ccnc(NC(=O)COC(=O)C2COc3ccccc3O2)n1 (stereo not drawn) | 3.9
65 | COC(=O)C1=C(C)NC2=C(C1c1ccc(O)cc1)S(=O)(=O)c1ccccc12 (stereo not drawn) | 11
66 | O=S(=O)(NCc1ccccc1)NCc1ccccc1F | 7.87

Row | SMILES | hERG current change (%, negative = inhibition) at 1uM [%]
67 | C(=C\c1ccccc1)/CSc1nnc(-c2ccncc2)n1Cc1ccco1 | -26.9
68 | COc1cc(C(=O)NC2CCCc3ccccc32)cc(OC)c1C (stereo not drawn) | 14.7
69 | COc1ccc(-c2ccc(C#N)c(OC(=O)c3c(Cl)cccc3Cl)n2)cc1 | 18.6
70 | COc1ccc(N(C(C)C(=O)N2CCCC2)S(C)(=O)=O)cc1 (stereo not drawn) | 11.6
71 | c1ccc(Nc2nc(N3CCNCC3)nc(N3CCOCC3)n2)cc1 | -6.11
72 | CC(C)CN(CC(C)C)C(=O)CN1C(=O)NC2(CCCc3ccccc32)C1=O (stereo not drawn) | 14.5
73 | Cc1ccc(NC(=O)C(C)OC(=O)CCN=C2NS(=O)(=O)c3ccccc32)cc1 (stereo not drawn) | 5.52
74 | COc1cccc(OCc2cc(C(=O)NCc3ccc4c(c3)OCO4)no2)c1 | 8.78
75 | CCOC(=O)Cn1nc(C)c(-c2ccccc2)c1N | 11
76 | O=C(OCc1ccc(F)cc1)c1ccc2c(c1)-c1ccccc1C2=O | 19.7
77 | CCN(Cc1ccccc1)C(=O)C1CCN(C/C(C)=C/c2ccccc2)CC1.O=C(O)C(=O)O | -31
78 | N=C1/C(=C/c2ccc(OCc3ccccc3)cc2)C(=O)N=C2SC(CC(=O)N3CCOCC3)=NN12 | 10.2
79 | O=C(Nc1cccc(S(=O)(=O)C(F)F)c1)c1ccc(S(=O)(=O)N2CCOCC2)cc1 | 0.202
80 | CCCCCCSc1ccc([C@H]2N[C@@](CC(C)C)(C(=O)OC)[C@H]3C(=O)N(CC)C(=O)[C@@H]23)cc1.O=C(O)C(F)(F)F | 6.48
81 | COc1ccc(OCC(=O)Nc2cccc3cccnc23)cc1 | 5.87
82 | CCOc1ccc(NC(=O)CSc2nc(=O)n(CCCN3CCOCC3)c3c2CCC3)cc1 | 6.24
83 | C[C@@H](O)C(C(=O)N1CCNCC1)n1cc([C@@H](N)CCCCN)nn1 (stereo partly drawn) | 0.985
84 | CC(C)N(C)Cc1nnnn1CC(=O)N(C)Cc1ccc(F)cc1 | 2.39
85 | Cc1ccc(-n2[nH]c3c4c(ccc3c2=O)C(=O)c2ccccc2C4=O)cc1 | -1.5
86 | CC(=O)CCn1cc([N+](=O)[O-])nc1C | 14
87 | O=C(NCc1ccccc1Cl)C1CCCN(C(=O)Nc2ccc(F)cc2)C1 (stereo not drawn) | 3.62
